# Values joined by “and” are separate entries in the source; they are usually repeats but may differ in a detail not shown here. Equal values may be shown once. The campaign covered roughly 350,000 compounds. About 260 (0.074%) were called active. Inconclusive means that the source gave no clear call. Such entries were picked first, then a sample of the others. The call rests on the fitted dose curve; in most records, active means well fitted inhibition curve with a large enough effect; inconclusive means small, poorly fitted or top-dose-only effect; inactive means no such curve, though single readings can be large or run the other way. Potencies of inconclusive entries are doubtful fits and often do not repeat.
# Target: Ferritin light chain (Equus caballus) (UniProt P02791)
# Assay: qHTS Assay for Identification of Novel General Anesthetics; further: nearly all actives have a fitted effect of over 20% in size
# Settings: apoferritin/1-aminoanthracene competitive binding, fluorescence; series mostly up to 77.5 µM
# How it was run: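 10 uM apoferritin + 50% sat. 1-AMA, PBS; cpd 10 min RT; Ex380/Em535 endpoint; normalized to free probe vs complex; 4-param Hill fit; propofol titration as pos. ctrl.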
# Potency means the concentration at half of the fitted maximal effect; tags describe the fitted curve by direction and shape.
# UniProt P02791, sequence (P02791 whole entry, looked up): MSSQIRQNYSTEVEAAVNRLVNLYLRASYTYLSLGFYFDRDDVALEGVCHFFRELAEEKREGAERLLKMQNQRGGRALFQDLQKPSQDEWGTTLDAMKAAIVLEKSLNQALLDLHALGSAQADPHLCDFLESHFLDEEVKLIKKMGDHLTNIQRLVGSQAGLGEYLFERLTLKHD
row,Compound,Potency
1,CN(C)N=Nc1ccc(S(N)(=O)=O)cc1,inactive
2,CCCCc1ccc(NC(=S)N2CCCC(C)C2)cc1 (stereo not given),"inconclusive: 31.6 µM [inhibitor, partial curve]"
3,Cc1ccc(OCC(=O)OCc2cc(=O)n3nc(C4CCCCC4)sc3n2)cc1C,"inconclusive: 50.1 µM [inhibitor, single point]"
4,O=C1CC(c2ccc(S(=O)(=O)Nc3cc(C(F)(F)F)cc(C(F)(F)F)c3)cc2)CN1 (stereo not given),"inconclusive: 15.8 µM [inhibitor, partial curve]"
5,CCn1c(-c2ccc(F)cc2)n[nH]c1=S,inactive
6,CCOc1ccc(CN2CCN(C/C=C/c3ccc(OC)cc3)CC2CCO)cc1 (stereo not given),inactive
7,CC(C(=O)Nc1ccc(OCc2ccccc2)cc1)N1CCCC1 (stereo not given),"inconclusive: 25.1 µM [inhibitor, partial curve]"
8,COc1ccc(/C=C/C(=O)NC(=S)NNC(=O)c2cccnc2)cc1OC,inactive
9,CCN(CC)CCNC(=O)c1ccc2c(c1)NC(=O)C(CS(=O)(=O)Cc1cccc(Br)c1)N2 (stereo not given),"inconclusive: 15.8 µM [inhibitor, partial curve]"
10,CCOC(=O)c1sc(NC(=O)CSc2nnnn2-c2ccccc2)nc1C,"inconclusive: 39.8 µM [inhibitor, partial curve, poor fit]"
11,COc1cc(C(=S)N2CCN(c3ccccc3Cl)CC2)cc(O)c1O,"inconclusive: 31.6 µM [inhibitor, partial curve]"
12,CCOC(=O)C(=CNCC(=O)OC)C(=O)OCC,inactive
13,O=C(CCN1C(=O)S/C(=C\c2ccccc2)C1=O)Nc1ccc(S(=O)(=O)Nc2nccs2)cc1,"inconclusive: 25.1 µM [inhibitor, partial curve]"
14,CCN(C(=O)c1cc2c(=O)oc3ccc(C)cc3c2s1)c1cc(OC)ccc1OC,"inconclusive: 31.6 µM [inhibitor, partial curve]"
15,N#Cc1c2c(c(NCCCN3CCOCC3)n3c1nc1ccccc13)CCC2,inactive
16,Cc1ccc(-c2ccc(=O)n(CC(=O)N3CCN(c4cccc(C)c4)C(C)C3)n2)cc1 (stereo not given),active: 25.1 µM
17,CCOC(=O)C1=C(CNCCc2ccc(Cl)cc2)NC(=O)NC1c1cccc([N+](=O)[O-])c1 (stereo not given),"inconclusive: 15.8 µM [inhibitor, partial curve]"
18,CCCCn1c(=O)c(C(=O)OCC)c(O)c2ccccc21,inactive
19,Cc1cc(C)c(NC(=O)CCCN2C(=O)COc3ccc(C)cc32)c(C)c1,"inconclusive: 28.2 µM [inhibitor, partial curve]"
20,COc1cc2c(cc1OC)C(C)N(CCN1C(=O)c3ccccc3C1=O)CC2 (stereo not given),inactive
21,O=C(Cn1ccc2cc(S(=O)(=O)N3CCCCC3)ccc21)NCCc1ccc(Cl)cc1,inactive
22,CCOc1ccc(C(=O)n2cc(C(=O)OC)c3ccccc32)cc1OCC,"inconclusive: 28.2 µM [inhibitor, partial curve]"
23,CCCCOc1ccc(C(=O)CCN2CCCCC2)cc1,"inconclusive: 31.6 µM [inhibitor, partial curve]"

row,Compound,Potency
1,Cc1ccc(NC(=O)OCc2cncs2)cc1,"inconclusive: 22.4 µM [inhibitor, partial curve]"
2,COc1cccc(C(=O)NNC2=C(C(=O)C(F)(F)F)CCC2)c1,inactive
3,CC1CCN(CCc2nc3cc(NC(=O)COc4ccccc4)ccc3n2C)CC1,inactive
4,Cc1[nH]c2ccccc2c1/C=C(\C#N)C(=O)NCC1CCCO1 (stereo not given),"inconclusive: 39.8 µM [inhibitor, single point]"
5,COC(=O)C1=C(C)N(c2cc(Cl)cc(Cl)c2)C(=O)C1,"inconclusive: 31.6 µM [inhibitor, partial curve]"
6,NC(=O)CC(NC(=O)c1ccc(Br)cc1)c1ccc(NC2CCCCC2)c([N+](=O)[O-])c1 (stereo not given),"inconclusive: 3.55 µM [inhibitor, full curve, poor fit]"
7,Cc1sc(NC(=O)CSc2nnc(-c3ccccc3)o2)c(C#N)c1C,"inconclusive: 15.8 µM [inhibitor, partial curve]"
8,O=[N+]([O-])c1ccccc1S(=O)(=O)N1CCCc2ccccc21,"inconclusive: 44.7 µM [inhibitor, partial curve]"
9,CN(C)/C=C(/C#N)C(=O)c1cccc(Oc2ccc(C(C)(C)C)cc2)c1,"inconclusive: 35.5 µM [inhibitor, partial curve]"
10,O=C(N/N=C/c1coc2ccccc2c1=O)c1cc(Br)c(O)c(Br)c1,inactive
11,Cc1onc(-c2c(F)cccc2Cl)c1C(=O)N1CCCc2ccccc21,"inconclusive: 35.5 µM [inhibitor, partial curve]"
12,Cn1c(N)c(C(=O)COC(=O)CCOc2ccc(C(C)(C)C)cc2)c(=O)n(C)c1=O,"inconclusive: 14.1 µM [inhibitor, partial curve]"
13,CCOc1ccc(C(=O)N/N=C/c2cccc3cccnc23)cc1,inactive
14,Cc1cc(C)cc(NC(=O)CSc2oc(-c3cccs3)nc2S(=O)(=O)c2ccccc2)c1,"inconclusive: 50.1 µM [inhibitor, single point]"
15,COc1ccccc1CNc1nc(-c2ccc(N(C)C)cc2)nc2ccccc12,inactive
16,O=C(CN1C(=O)/C(=C/c2ccccc2Cl)SC1=S)NC1C=CS(=O)(=O)C1 (stereo not given),"inconclusive: 28.2 µM [inhibitor, single point]"
17,O=C(O)COc1ccc(C(=O)c2cccs2)c(Cl)c1Cl,inactive
18,Cc1cccc(C)c1NC(=O)CSc1nc(C)c(CC(=O)c2ccc(Br)cc2)c(C)c1C#N,inactive
19,CCN(CC)C(=O)CSc1nnc(-c2cc3ccccc3cc2O)n1CC,"inconclusive: 39.8 µM [inhibitor, partial curve]"
20,CCCCCCCCCCCCOCCOCCOCCOCCO,"inconclusive: 22.4 µM [inhibitor, partial curve] and inconclusive: 50.1 µM [inhibitor, single point]"
21,CCOC(=O)c1cc(S(=O)(=O)N2CCN(c3cc(C)ccc3C)CC2)[nH]n1,"inconclusive: 7.08 µM [inhibitor, full curve, poor fit]"
22,Cc1cnc(C(=O)Nc2ccccc2-n2cccc2)cn1,inactive
